The campaign covered roughly 310,000 compounds. About 2,200 (0.71%) showed an effect of 50% or more. Effects have a minus sign here. Some of the results follow.
Target: human ether-à-go-go-related gene (hERG) potassium channel (human, UniProt Q12809)
Test: primary screen, population patch clamp on CHO cells stably expressing hERG

human ether-à-go-go-related gene (hERG) potassium channel, sequence (Q12809 whole entry, looked up): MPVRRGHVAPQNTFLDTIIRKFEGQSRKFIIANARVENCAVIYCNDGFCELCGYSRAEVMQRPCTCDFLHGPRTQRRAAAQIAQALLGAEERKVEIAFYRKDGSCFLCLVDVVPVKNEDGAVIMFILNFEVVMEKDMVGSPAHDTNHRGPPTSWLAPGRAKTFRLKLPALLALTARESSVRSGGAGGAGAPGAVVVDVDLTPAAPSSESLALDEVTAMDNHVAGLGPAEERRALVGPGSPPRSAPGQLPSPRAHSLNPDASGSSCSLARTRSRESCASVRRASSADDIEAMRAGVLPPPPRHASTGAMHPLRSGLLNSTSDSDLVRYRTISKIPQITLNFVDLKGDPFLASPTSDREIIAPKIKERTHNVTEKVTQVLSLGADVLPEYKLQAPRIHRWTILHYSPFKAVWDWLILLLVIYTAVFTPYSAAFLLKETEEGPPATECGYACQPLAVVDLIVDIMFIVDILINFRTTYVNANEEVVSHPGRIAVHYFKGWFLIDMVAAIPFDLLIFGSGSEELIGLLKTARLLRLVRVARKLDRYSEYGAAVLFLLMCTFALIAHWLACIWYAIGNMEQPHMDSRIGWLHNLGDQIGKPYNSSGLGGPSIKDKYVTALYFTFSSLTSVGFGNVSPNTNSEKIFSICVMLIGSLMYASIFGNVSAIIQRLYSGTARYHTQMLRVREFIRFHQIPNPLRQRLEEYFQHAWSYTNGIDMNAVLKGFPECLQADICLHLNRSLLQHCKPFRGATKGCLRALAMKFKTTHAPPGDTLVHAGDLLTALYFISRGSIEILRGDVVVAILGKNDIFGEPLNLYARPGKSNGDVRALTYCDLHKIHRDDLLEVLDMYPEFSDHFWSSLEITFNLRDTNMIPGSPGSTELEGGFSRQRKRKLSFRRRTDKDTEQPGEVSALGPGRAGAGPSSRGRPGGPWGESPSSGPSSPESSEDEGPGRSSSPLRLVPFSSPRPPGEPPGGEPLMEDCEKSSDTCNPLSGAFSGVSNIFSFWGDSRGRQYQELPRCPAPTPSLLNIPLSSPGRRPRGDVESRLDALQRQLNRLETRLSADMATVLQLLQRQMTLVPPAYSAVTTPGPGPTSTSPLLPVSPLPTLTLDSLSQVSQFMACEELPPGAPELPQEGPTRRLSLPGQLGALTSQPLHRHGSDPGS

SMILES | hERG current change (%, negative = inhibition) at 1uM [%]
CCCC(C)C(=O)Nc1ccc(Cl)cc1Cl (stereo not shown) | 9.32
Cc1ccc2c(c1)/C(=N/O)CCS2 | 7.81
CCOC(=O)C1=C(C)Nc2nc3ccccc3n2C1c1cccs1 (stereo not shown) | 9.54
O=[N+]([O-])c1cc2c(cc1CN1CCN(c3ccccc3F)CC1)OCO2 | 12.8
Cc1cc(C)n(-c2nnc3c4ccccc4n(C)c3n2)n1 | 10.2
O=S1(=O)CCN2C(c3ccco3)=CSC2=N1 | 6.12
COc1ccc2c3c(cccc13)C(=O)CC2 | 17.1
CCc1ccc(C(=O)COC(=O)C2CCN(c3ccc(C(F)(F)F)cn3)CC2)cc1 | 5.13
COc1ccc(Cc2n[nH]c(=S)n2NC(=O)Nc2ccc(C)cc2)cc1 | -2.1
CC(C)c1nnc(NC(=O)CCC(=O)NCc2cccs2)s1 | 8.72
Cc1ccc(Oc2ncc(-c3ccc(Cl)cc3)cn2)cc1 | 11.8
Cc1nn(Cc2ccccc2)c(C)c1C(=O)O | -7.39
Cc1c(NC(=O)OCc2ccccc2)c(=O)n(-c2ccccc2)n1C | 12.2
CCCN(Cc1cc2ccc(C)cc2[nH]c1=O)C(=O)c1ccccn1 | 3.51
CN(Cc1cccs1)C(=O)CCCc1c[nH]c2ccccc12 | 4.34
COc1ccc(C(=O)NCCSCc2ccc(C)cc2)cc1 | 8.09
O=S(=O)(c1ccccc1)N1CN2CCN(C2)C1 | 1.04
O=C(CCN1CCN(c2ccccc2)CC1)Nc1ccccc1F | 14.5
CCC/C(O)=C1\C(=O)CC(C)(C)CC1=NCc1ccccc1 | 2.91
Cn1cccc1C(=O)OCC(=O)NC(=O)NC1CCCCC1 | 9.6
CCOC(=O)c1sc2c(c1C)C(c1cccs1)C1=C(CCCC1=O)N2 (stereo not shown) | 6.25

SMILES | hERG current change (%, negative = inhibition) at 1uM [%]
C=CC[n+]1c(C)csc1Nc1cccc(Br)c1.[Br-] | 13.5
CCc1cc2c(=O)n(CCCOC)c(SCC(=O)Nc3oc(C)c4c(C)n[nH]c(=O)c34)nc2s1 | 4.66
O=C(NCc1csc(-c2cccs2)n1)C1CC1 | 13.3
COCCn1c(SCC(=O)Nc2ccccc2OC)nnc1-c1ccco1 | 9.5
C=CCNC(=O)/C(C#N)=C\c1cc(Cl)c(O)c(OCC)c1 | 2.98
Clc1ccc(-c2csc(=Nc3cccnc3)n2CCCn2ccnc2)cc1Cl | -22.6
Cc1cc(=O)[nH]c(S)c1C#N | 6.3
C/C(Cn1nnc([N+](=O)[O-])n1)=N\NC(=O)c1ccc(O)cc1 | 12.5
CC(C)(C)n1nnnc1C(c1ccc(C(F)(F)F)cc1)N(Cc1ccccc1)Cc1ccco1 (stereo not shown) | 12.6
FC(F)(F)c1ccc(-c2csc(-c3ccno3)n2)cc1 | 11.9
Cc1onc(-c2ccccc2)c1C(=O)NC(=S)Nc1sc2c(c1C#N)CCC(C)C2 (stereo not shown) | 12.8
CC(C)(C)c1ccc(S(=O)(=O)N2CCC(O)(c3ccc(Cl)cc3)CC2)cc1 | 2.78
CN(CCOc1ccccc1)C(=O)c1ccc2c(c1)OCO2 | -0.138
O=C(O)c1ccc(O)c(O)c1 | 13.7
CCOC(=O)c1c(NC(=O)c2ccc(N3C(=O)C4C5C=CC(C5)C4C3=O)cc2)sc2c1CCCC2 (stereo not shown) | 15.2
CCOc1ccc(NC(=S)N2CCC(C(O)(c3ccccc3)c3ccccc3)CC2)cc1 | -0.891
CCOc1ccc2c(c1)c1nc3ccccc3nc1n2C | 12.2
CCCCN(CC)Cc1c(C)[nH]c2ccccc2c1=O | -3.42
NNC(=O)COc1ncn(-c2ccccc2)n1 | 16.2
O=C(C1=NN[C@@H]2C(=O)N(c3cccc(C(F)(F)F)c3)C(=O)[C@H]12)c1ccc2ccccc2n1 | 0.397
COc1ccc(CCCc2nnc(SCC(=O)Nc3cccc(C)c3)o2)cc1 | 3.89

SMILES | hERG current change (%, negative = inhibition) at 1uM [%]
N#CC1=C(N)N(c2ccc(Cl)c(Cl)c2)C(=O)C1 | 11.3
O=c1c2c3c(sc2nc2sc(C4CC4)nn12)CCCC3 | -9.33
CC(C)Cn1c(SCC(=O)NC(=O)NC2CCCC2)nc2ccccc21 | 2.14
CCN(CC(=O)NCc1cccs1)c1nnnn1-c1ccccc1 | -4.58
CCCCCCn1c(=O)c(C(=O)Nc2nnc(C)s2)c(O)c2ccccc21 | 12
CSc1ccc(S(=O)(=O)N2CCC(C(=O)Nc3ccccc3C(F)(F)F)CC2)cc1 | 11.7
O=C(NCc1ccc2c(c1)OCO2)c1cc(-c2ccccn2)nc2ccccc12 | 7.16
CCN(CC)CCn1c(=S)[nH]c2cc(C(=O)NCc3ccc(C)cc3)ccc2c1=O | 4.77
Cn1c(SCC(=O)N2CCOCC2)nnc1-c1ccccc1 | 2.77
CC(=O)c1cccc(NC(=O)N2CC(C)OC(C)C2)c1 (stereo not shown) | 13.1
Cn1cnc([N+](=O)[O-])c1N=C(N)N | 11.5
O=C(CSCc1c(F)cccc1F)Nc1ccccc1 | 15
CCOc1ccc(-n2nnnc2-c2nc3ccccc3s2)cc1 | 7.22
O=C(O)CN1C(=O)CN=C(c2ccccn2)c2cc(Cl)ccc21 | 4.75
O=c1nc(-c2ccccc2)cc(C(F)(F)F)[nH]1 | 21.3
Cc1csc2nc(O)c(C(=O)NCC3CCCO3)c(=O)n12 (stereo not shown) | 14.3
C=CCC(CC=C)(NC(=O)c1ccccc1)c1ccccc1 | 9.7
COc1ccc(CCNC(=O)Cn2nc([N+](=O)[O-])c(Br)c2C)cc1OC | 13.1
Cc1ccc(CC(=O)NCc2ccc(F)cc2)cc1 | 13.3

Source: publication PMC4336329 (PLoS ONE, 2015)
